# Results as given in the supplement of paper PMC4604168 (melanoma cell lines).
# The list shows a part of the results. Most values come without repeats; read them as rough.
# Tested on: WM3619
# Assay: cell count relative to DMSO control; melanoma cells; higher = more viable cells
# Conditions: library dose: standard library concentration; 72 h
# 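Further: cells treated in 1,536-well plates, then fixed and DAPI-stained, with nuclei counted from automated high-throughput microscope images.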
row,SMILES,cell count [%]
1,"CCN(CC)CCNC(=O)c1c(C)[nH]c(/C=C2\C(=O)Nc3ccc(F)cc32)c1C [sunitinib] + Cn1c(Nc2ccc(C(F)(F)F)cc2)nc2cc(Oc3ccnc(-c4ncc(C(F)(F)F)[nH]4)c3)ccc21 [CHIR265] (first compound 2 µM, partner dose 0.4 µM)",42.8
2,"COc1cc([C@@H]2c3cc4c(cc3[C@@H](O[C@@H]3O[C@@H]5CO[C@@H](C)O[C@H]5[C@H](O)[C@H]3O)[C@H]3COC(=O)[C@H]23)OCO4)cc(OC)c1O [etoposide] + C[C@]1(c2nc3c(C(N)=O)cccc3[nH]2)CCCN1 [Veliparib] (first compound 0.1 µM, partner dose 7 µM)",79.7
3,"Cn1cnc2c(F)c(Nc3ccc(Br)cc3Cl)c(C(=O)NOCCO)cc21 [selumetinib] + OCc1c[nH]c2ccccc12 [Indole-3-carbinol] (first compound 0.075 µM, partner dose 4 µM)",48.8
4,"Cn1cnc2c(F)c(Nc3ccc(Br)cc3Cl)c(C(=O)NOCCO)cc21 [selumetinib] + CC(C)C[C@H](NC(=O)[C@H](Cc1ccccc1)NC(=O)c1cnccn1)B(O)O [Bortezomib] (first compound 0.075 µM, partner dose 0.005 µM)",4
5,"CCN(CC)CCNC(=O)c1c(C)[nH]c(/C=C2\C(=O)Nc3ccc(F)cc32)c1C [sunitinib] + CC(=O)O[C@@]12CO[C@@H]1C[C@H](O)[C@@]1(C)C(=O)[C@H](O)C3=C(C)[C@@H](OC(=O)[C@H](O)[C@@H](NC(=O)OC(C)(C)C)c4ccccc4)C[C@@](O)([C@@H](OC(=O)c4ccccc4)[C@H]21)C3(C)C [Docetaxel] (first compound 2 µM, partner dose 0.0005 µM)",58.1
6,"COc1cc([C@@H]2c3cc4c(cc3[C@@H](O[C@@H]3O[C@@H]5CO[C@@H](C)O[C@H]5[C@H](O)[C@H]3O)[C@H]3COC(=O)[C@H]23)OCO4)cc(OC)c1O [etoposide] + CO[C@H]1C[C@@H]2CC[C@@H](C)[C@@](O)(O2)C(=O)C(=O)N2CCCC[C@H]2C(=O)O[C@H]([C@H](C)C[C@@H]2CC[C@@H](OCCO)[C@H](OC)C2)CC(=O)[C@H](C)/C=C(\C)[C@@H](O)[C@@H](OC)C(=O)[C@H](C)C[C@H](C)/C=C/C=C/C=C/1C [everolimus] (first compound 0.1 µM, partner dose 0.1 µM)",60.6
7,"Cn1cnc2c(F)c(Nc3ccc(Br)cc3Cl)c(C(=O)NOCCO)cc21 [selumetinib] + CNC(=O)c1cc(Oc2ccc(NC(=O)Nc3ccc(Cl)c(C(F)(F)F)c3)cc2)ccn1 [sorafenib] (first compound 0.075 µM, partner dose 2 µM)",65.1
8,"COc1cc([C@@H]2c3cc4c(cc3[C@@H](O[C@@H]3O[C@@H]5CO[C@@H](C)O[C@H]5[C@H](O)[C@H]3O)[C@H]3COC(=O)[C@H]23)OCO4)cc(OC)c1O [etoposide] + CC(=O)O[C@@]12CO[C@@H]1C[C@H](O)[C@@]1(C)C(=O)[C@H](O)C3=C(C)[C@@H](OC(=O)[C@H](O)[C@@H](NC(=O)OC(C)(C)C)c4ccccc4)C[C@@](O)([C@@H](OC(=O)c4ccccc4)[C@H]21)C3(C)C [Docetaxel] (first compound 0.1 µM, partner dose 0.0005 µM)",61.8
9,"C[C@]1(O)C[C@@H](c2nc(-c3ccc4ccc(-c5ccccc5)nc4c3)c3c(N)nccn32)C1 + CN1CCN(c2ccc3nc(-c4c(N)c5c(F)cccc5[nH]c4=O)[nH]c3c2)CC1 [Dovitinib] (first compound 2 µM, partner dose 0.5 µM)",71
10,"CCN(CC)CCNC(=O)c1c(C)[nH]c(/C=C2\C(=O)Nc3ccc(F)cc32)c1C [sunitinib] + NC1(c2ccc(-c3nc4ccn5c(=O)[nH]nc5c4cc3-c3ccccc3)cc2)CCC1 [MK2206] (first compound 2 µM, partner dose 2 µM)",45.6
11,"COc1cc([C@@H]2c3cc4c(cc3[C@@H](O[C@@H]3O[C@@H]5CO[C@@H](C)O[C@H]5[C@H](O)[C@H]3O)[C@H]3COC(=O)[C@H]23)OCO4)cc(OC)c1O [etoposide] + Cn1c(=O)n(-c2ccc(C(C)(C)C#N)cc2)c2c3cc(-c4cnc5ccccc5c4)ccc3ncc21 [NVP-BEZ235] (first compound 0.1 µM, partner dose 0.02 µM)",50.7
